# From the supplement of paper PMC8728848
# The other results are listed elsewhere or left out.
# Assays:
# Experiment in all cases: glycan array binding signal (z-score within array); higher = stronger binding
# Conditions in all cases: glycan notation: IUPAC condensed, linker removed
# [1] = biological target: Neu5Ac(a2-8)Neu5Ac
# How it was run: (§1)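 Glycan array data were curated from 3228 arrays in the Consortium for Functional Glycomics database and kept only where the protein sequence was available. Glycan names were converted to IUPAC-condensed notation, and columns mapping to the same glycan were averaged. The binding signal is a within-array Z-score, averaged across arrays of the same protein sequence at different concentrations or buffers and across linkers. Negative Z-scores can be read as non-binding.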
# [2] = biological target: Neu5Ac(a2-8)Neu5Ac(a2-3)Gal(b1-3)GalNAc(b1-4)[Neu5Ac(a2-3)]Gal(b1-4)Glc
# How it was run: as §1
# [3] = biological target: Neu5Ac(a2-8)Neu5Ac(a2-3)Gal(b1-3)GalNAc(b1-4)[Neu5Ac(a2-8)Neu5Ac(a2-3)]Gal(b1-4)Glc
# How it was run: as §1
# [4] = biological target: Neu5Ac(a2-8)Neu5Ac(a2-3)Gal(b1-4)Glc
# How it was run: as §1
# [5] = biological target: Neu5Ac(a2-8)Neu5Ac(a2-3)Gal(b1-4)GlcNAc
# How it was run: as §1
# [6] = biological target: Neu5Ac(a2-8)Neu5Ac(a2-3)[Gal(b1-3)GalNAc(b1-4)]Gal(b1-4)Glc
# How it was run: as §1
# [7] = biological target: Neu5Ac(a2-8)Neu5Ac(a2-3)[GalNAc(b1-4)]Gal(b1-4)Glc
# How it was run: as §1
# [8] = biological target: Neu5Ac(a2-8)Neu5Ac(a2-8)Neu5Ac
# How it was run: as §1
# [9] = biological target: Neu5Ac(a2-8)Neu5Ac(a2-8)Neu5Ac(a2-3)Gal(b1-4)Glc
# How it was run: as §1
# [10] = biological target: Neu5Ac(a2-8)Neu5Ac(a2-8)Neu5Ac(a2-3)[Gal(b1-3)GalNAc(b1-4)]Gal(b1-4)Glc
# How it was run: as §1
# [11] = biological target: Neu5Ac(a2-8)Neu5Ac(a2-8)Neu5Ac(a2-3)[GalNAc(b1-4)]Gal(b1-4)Glc
# How it was run: as §1
# [12] = biological target: Neu5Ac(a2-8)Neu5Ac(a2-8)Neu5Ac(a2-8)Neu5Ac(a2-3)[GalNAc(b1-4)]Gal(b1-4)Glc
# How it was run: as §1
# [13] = biological target: Neu5Ac(a2-8)Neu5Gc(a2-3)Gal(b1-4)GlcNAc
# How it was run: as §1
# [14] = biological target: Neu5Ac(b2-6)Gal(b1-4)GlcNAc
# How it was run: as §1
# [15] = biological target: Neu5Ac(b2-6)GalNAc
# How it was run: as §1
# [16] = biological target: Neu5Ac9Ac(a2-3)Gal(b1-3)GlcNAc
# How it was run: as §1
# [17] = biological target: Neu5Ac9Ac(a2-3)Gal(b1-4)GlcNAc
# How it was run: as §1
# [18] = biological target: Neu5Ac9Ac(a2-6)Gal(b1-4)GlcNAc
# How it was run: as §1
# [19] = biological target: Neu5Gc(a2-3)Gal(b1-3)GlcNAc
# How it was run: as §1
# [20] = biological target: Neu5Gc(a2-3)Gal(b1-3)[Fuc(a1-4)]GlcNAc
# How it was run: as §1
# [21] = biological target: Neu5Gc(a2-3)Gal(b1-4)Glc
# How it was run: as §1
# [22] = biological target: Neu5Gc(a2-3)Gal(b1-4)GlcNAc
# How it was run: as §1
# [23] = biological target: Neu5Gc(a2-3)Gal(b1-4)GlcNAc(b1-3)Gal(b1-4)GlcNAc(b1-2)Man(a1-3)[Neu5Gc(a2-3)Gal(b1-4)GlcNAc(b1-3)Gal(b1-4)GlcNAc(b1-2)Man(a1-6)]Man(b1-4)GlcNAc(b1-4)GlcNAc
# How it was run: as §1
# [24] = biological target: Neu5Gc(a2-3)Gal(b1-4)[Fuc(a1-3)]GlcNAc
# How it was run: as §1
# [25] = biological target: Neu5Gc(a2-6)Gal(b1-4)GlcNAc
# How it was run: as §1
# [26] = biological target: Neu5Gc(a2-6)GalNAc
# How it was run: as §1
# [27] = biological target: Neu5Gc(a2-8)Neu5Ac(a2-3)Gal(b1-4)GlcNAc
# How it was run: as §1
# [28] = biological target: Neu5Gc(a2-8)Neu5Gc(a2-3)Gal(b1-4)GlcNAc
# How it was run: as §1
# [29] = biological target: Neu5Gc(a2-8)Neu5Gc(a2-3)Gal(b1-4)GlcNAc(b1-3)Gal(b1-4)GlcNAc
# How it was run: as §1
# [30] = biological target: Neu5Gc(a2-8)Neu5Gc(a2-6)Gal(b1-4)GlcNAc
# How it was run: as §1
# [31] = biological target: Neu5Gc(b2-6)Gal(b1-4)GlcNAc
# How it was run: as §1
binder,measurement,setting,value
Na-CTL-1 (Necator americanus) (protein) MQRSFLLLLVVLAGAWAVNTTIPLKLMGGFTPMKYQCVGRVSDIWADVLFLIESSDMITKSGFRQVIAFITATTKKMTIGQDEKQTRVGFITYGEEAKLIYDLDHWRSTEKLSDLVQKIPYVKSSGTNIAAAIALANKVFNSPTHRPNVPKVMVIVANGLKKGSQNPIPVATAFKDFGGIIITIEYTQYDNIQVPILKKIASEGYNIRSNDEDFSVRTLTNMLLQANCFCPDHYVPFRVNNPEFGCFVTAKIPSMWRDAAEMCRAVEEGKLVKVENEEKAAFIMKLVGPKKEAWIGLRYYGNKFQWTDGTKLNADDFNLWPEDIKELNGPHCVSMYQDQKDKKYYWRAGKCLEDMRYVCEVQPCSASNYCSEPVFMYRQKHRALLPAPPPPPN,glycan array binding signal (z-score),[1],0.031
same,glycan array binding signal (z-score),[2],0.166
same,glycan array binding signal (z-score),[3],0.93
same,glycan array binding signal (z-score),[4],-0.113
same,glycan array binding signal (z-score),[5],-0.135
same,glycan array binding signal (z-score),[6],0.484
same,glycan array binding signal (z-score),[7],0.327
same,glycan array binding signal (z-score),[8],-0.395
same,glycan array binding signal (z-score),[9],-0.34
same,glycan array binding signal (z-score),[10],-0.567
same,glycan array binding signal (z-score),[11],0.707
same,glycan array binding signal (z-score),[12],0.689
same,glycan array binding signal (z-score),[13],-0.136
same,glycan array binding signal (z-score),[14],-0.378
same,glycan array binding signal (z-score),[15],-0.431
same,glycan array binding signal (z-score),[16],-0.588
same,glycan array binding signal (z-score),[17],-0.414
same,glycan array binding signal (z-score),[18],-0.318
same,glycan array binding signal (z-score),[19],-0.578
same,glycan array binding signal (z-score),[20],-0.414
same,glycan array binding signal (z-score),[21],-0.182
same,glycan array binding signal (z-score),[22],-0.098
same,glycan array binding signal (z-score),[23],-0.162
same,glycan array binding signal (z-score),[24],0.165
same,glycan array binding signal (z-score),[25],0.081
same,glycan array binding signal (z-score),[26],-0.455
same,glycan array binding signal (z-score),[27],-0.128
same,glycan array binding signal (z-score),[28],-0.553
same,glycan array binding signal (z-score),[29],-0.078
same,glycan array binding signal (z-score),[30],-0.272
same,glycan array binding signal (z-score),[31],-0.163
